Data reported in the supplement of paper PMC7125110.
± gives the standard error. For some of these results: This sample is rich in variants without activity.

B1: glmS ribozyme (parent)
chain: AUAAAAGCGCCAGAACUACAGAAAUGUAGUUGACGAGGAGGAGGUUUAUCGAAUUUUCGGCGGAUGCCUCCAAA

Columns and labels:
Settings in all cases: with glucosamine-6-phosphate
glucosamine-6-phosphate [1] = variants of: B1; test: self-cleavage kobs at 640 uM GlcN6P; higher = faster cleavage; RNA array
Summary of the method: (§1)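 Tiles of sequenced MiSeq chips were imaged over ~14 h at 37 °C. On them, barcoded ribozyme variants had been transcribed in situ by E. coli RNA polymerase and were tracked via a hybridised Cy3 probe while glucosamine-6-phosphate (40 μM to 10 mM) in HEPES/KCl/Mg(OAc)2 buffer flowed in. Per-tile medians, normalised to baseline and to non-cleaving reference variants, were fit to one- or two-exponential decays for kobs, and weighted Michaelis–Menten fits gave kcat and KM.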

glucosamine-6-phosphate [2] = variants of: B1; test: self-cleavage kobs at 2500 uM GlcN6P; higher = faster cleavage; RNA array
Summary of the method: as §1

glucosamine-6-phosphate [3] = variants of: B1; test: self-cleavage kobs at 10000 uM GlcN6P; higher = faster cleavage; RNA array
Summary of the method: as §1

glucosamine-6-phosphate [4] = variants of: B1; test: self-cleavage kobs at 160 uM GlcN6P; higher = faster cleavage; RNA array
Summary of the method: as §1

Row | Variant | self-cleavage kobs at 640 uM GlcN6P (glucosamine-6-phosphate [1]) [s⁻¹] | self-cleavage kobs at 2500 uM GlcN6P (glucosamine-6-phosphate [2]) [s⁻¹] | self-cleavage kobs at 10000 uM GlcN6P (glucosamine-6-phosphate [3]) [s⁻¹] | self-cleavage kobs at 160 uM GlcN6P (glucosamine-6-phosphate [4]) [s⁻¹]
1 | G29A G37C A53C G62C | < 1e-05 | < 1e-05 |  | 
2 | A15G G35A G40A G44U C50U C68U | < 1e-05 |  |  | 
3 | G29C G40C | 3.65e-05 ± 1.5e-05 | 7.4e-05 ± 1.6e-05 | 8.84e-05 ± 1.8e-05 | 
4 | C16G U31C C61U C67U | < 1e-05 |  |  | < 1e-05
5 | G32U A42U A53G | < 1e-05 |  |  | < 1e-05
6 | G32U A64G | 0.000178 ± 2.3e-05 | 0.00034 ± 4.6e-05 | 0.000774 ± 0.00011 | 4.19e-05 ± 1.1e-05
7 | A33U U54A C70A | 5.86e-05 ± 2e-05 |  |  | 
8 | G29U A42C G44U U54A C68A | < 1e-05 | < 1e-05 |  | < 1e-05
9 | C34G G37A U45A C58A | < 1e-05 |  |  | 
10 | A33C G37C C58A G60U | < 1e-05 | < 1e-05 |  | 
11 | G32C G35U C50A U56A | < 1e-05 |  |  | 
12 | U30G G32A A48G G62C | < 1e-05 | < 1e-05 |  | < 1e-05
13 | C16A A64C C67G U69G | < 1e-05 |  |  | 
14 | U30G A36U U46C U49A C58A | < 1e-05 |  |  | < 1e-05
15 | A15U U65A | 0.000146 ± 2.3e-05 | 0.00021 ± 4.1e-05 | 0.00039 ± 5.6e-05 | 6.26e-05 ± 2.2e-05
16 | U31C A39G U45C C50U | < 1e-05 | < 1e-05 |  | 
17 | A15U G38U G40C A52U C58U C61G | < 1e-05 |  |  | 
18 | G29A U31C G44U | < 1e-05 | < 1e-05 |  | 
19 | G32C C50U U65C | < 1e-05 | < 1e-05 |  | 
20 | A33U C50G G51U A52U | < 1e-05 | < 1e-05 |  | 
21 | C34A G44U C50A | < 1e-05 |  |  | 
22 | U31C U45A C67A | 0.000203 ± 4.8e-05 | 0.000723 ± 0.00023 |  | 0.000102 ± 3e-05
23 | U30A G35C | < 1e-05 | < 1e-05 | < 1e-05 | < 1e-05
24 | C16U G40C U49C G51A | < 1e-05 | < 1e-05 |  | < 1e-05
25 | A15U C16A A52U A53C | < 1e-05 | < 1e-05 |  | 
26 | A33C G41U U65G | < 1e-05 | < 1e-05 |  | 
27 | C34U G40U U47A G66U | < 1e-05 | < 1e-05 |  | 
